The antibiotic and cytotoxicity screens of Wong et al. (2023)
The other results are listed elsewhere or left out.

Assays:
[1] = tested on: HSkMC (human skeletal muscle cells); test: cytotoxicity call (relative viability < 0.9); settings: 10 µM
[2] = tested on: S. aureus RN4220; test: growth inhibition call (relative growth <= 0.2); settings: 50 µM

SMILES	cytotoxicity call [1]	growth inhibition call [2]
COc1ccc(NC(=O)Nc2ccc3c(c2)C(=O)N([C@H](C)CO)C[C@H](C)[C@H](CN(C)C(=O)NC2CCCCC2)OCCCC[C@H](C)O3)cc1	inactive	inactive
Cc1cc(C(=O)Nc2cccc3c2O[C@H](CN(C)C(=O)NC(C)C)[C@@H](C)CN([C@@H](C)CO)C3=O)n(C)n1	inactive	inactive
Cc1noc(C)c1S(=O)(=O)Nc1ccc2c(c1)C(=O)N([C@@H](C)CO)C[C@H](C)[C@@H](CN(C)Cc1ccc(C(=O)Nc3ccccc3N)cc1)OCCCC[C@@H](C)O2	inactive	inactive
C[C@@H]1CCCCO[C@H](CN(C)S(=O)(=O)c2cccs2)[C@@H](C)CN([C@H](C)CO)C(=O)c2cc(NC(=O)Nc3ccccc3)ccc2O1	inactive	inactive
C[C@@H]1CCCCO[C@H](CN(C)S(=O)(=O)c2ccc(Cl)cc2)[C@@H](C)CN([C@@H](C)CO)C(=O)c2cc(NS(=O)(=O)c3ccc(Cl)cc3)ccc2O1	inactive	inactive
Cc1[nH]c(=O)[nH]c(=O)c1S(=O)(=O)N1CCC[C@H](C(=O)NCc2ccc3c(c2)OCO3)C1	inactive	inactive
NC(=O)N1C(=O)[C@H]2[C@H](C1=O)[C@H]1C=C(CCCO)[C@@H]2[C@H](c2cccs2)N1Cc1cc2c(cc1Br)OCO2	inactive	inactive
C[C@@H]1CN([C@H](C)CO)C(=O)c2cc(NC(=O)Cn3cnnn3)ccc2O[C@H]1CN(C)S(=O)(=O)c1ccc(F)cc1	inactive	inactive
CO[C@@H]1CN(C)C(=O)c2ccc(NC(=O)c3ccc(F)cc3)cc2OC[C@H](C)N(C(=O)CN(C)C)C[C@@H]1C	inactive	inactive
C[C@H](CO)N1C[C@H](C)[C@H](CN(C)C(=O)Nc2ccnc(N3CCOCC3)c2)OCc2cnnn2CCCC1=O	inactive	inactive
C[C@H](CO)N1C[C@H](C)[C@H](CN(C)S(=O)(=O)c2cn(C)cn2)Oc2ccc(NC(=O)Nc3ccc4c(c3)OCO4)cc2C1=O	inactive	inactive
C[C@H]1CN([C@@H](C)CO)C(=O)c2cc(NS(C)(=O)=O)ccc2O[C@@H]1CN(C)C(=O)Nc1ccc(C(F)(F)F)cc1	inactive	inactive
COCc1nc(C)c(CN)s1	inactive	inactive
CC(C)CN1C(=O)[C@@]2(c3ccc([N+](=O)[O-])cc3)CC(=O)N(CC3C4CC5CC(C4)CC3C5)[C@@H]2c2ccc(CO)cc21 (some centres undefined)	inactive	inactive
CC(=O)N[C@@H](CC(C)C)C(=O)O	inactive	inactive
C[C@H](CO)N1C[C@H](C)[C@H](CN(C)Cc2ccc(Oc3ccccc3)cc2)Oc2ccc(NC(=O)CCC(F)(F)F)cc2C1=O	inactive	inactive
Cn1cnc(S(=O)(=O)N2C[C@@H](O)COC[C@@H]3O[C@@H](CC(=O)NCc4cccc(F)c4)CC[C@H]32)c1	inactive	inactive
Cc1noc(C)c1S(=O)(=O)Nc1cccc2c1O[C@@H](CN(C)S(=O)(=O)c1cn(C)cn1)[C@@H](C)CN([C@H](C)CO)C2=O	inactive	inactive
Nc1nnc(SC[C@@H](O)CO)s1	inactive	inactive
CNC(=O)[C@H]1Cc2ccccc2N1C(=O)COC	inactive	inactive
Cc1cc(C(=O)Nc2cccc3c2O[C@@H](CN(C)C(=O)Nc2ccc4c(c2)OCO4)[C@H](C)CN([C@@H](C)CO)C3=O)n(C)n1	inactive	inactive
C[C@@H]1CN([C@H](C)CO)C(=O)c2cc(NC(=O)Nc3ccccc3)ccc2O[C@@H](C)CCCCO[C@@H]1CN(C)C(=O)Cc1ccccc1	inactive	inactive
Cc1ccc(S(=O)(=O)N(C)C[C@H]2Oc3ccc(NS(=O)(=O)c4cn(C)cn4)cc3CC(=O)N([C@@H](C)CO)C[C@H]2C)cc1	inactive	inactive
COc1cc(-c2cc(=O)c3c(s2)N(c2ccc(OC)c(OC)c2)[C@@H](c2ccc(O)c(OC)c2)CC3=O)ccc1O	inactive	inactive
C[C@@H]1CN([C@@H](C)CO)C(=O)Cc2cc(NC(=O)Nc3cccc4ccccc34)ccc2O[C@H]1CN(C)Cc1ccc(-c2ccccc2)cc1	inactive	inactive
CO[C@@H]1CN(C)C(=O)c2ccc(NC(=O)c3cc(C)on3)cc2OC[C@@H](C)N(C(=O)C2CCC2)C[C@H]1C	inactive	inactive
C[C@@H]1CCCCO[C@@H](CN(C)C(=O)Cc2ccccc2)[C@H](C)CN([C@@H](C)CO)C(=O)c2cc(NS(=O)(=O)c3ccc(F)cc3)ccc2O1	inactive	inactive
